The subject of assay [1] is HSkMC (human skeletal muscle cells). Kind of assay: cytotoxicity call (relative viability < 0.9). The note with it: 10 µM.
In assay [2] the test system is HepG2. Description: cytotoxicity call (relative viability < 0.9). The following applies: 10 µM.
Assay [3] relates to S. aureus RN4220. Description: growth inhibition call (relative growth <= 0.2). The note with it: 50 µM.

The other results are listed elsewhere or left out.

Consider `C[C@H](CO)N1C[C@H](C)[C@@H](CN(C)C(=O)Nc2cccc3ccccc23)Oc2c(NC(=O)Nc3cccc4ccccc34)cccc2C1=O`, for which the cytotoxicity call in assay [1] and in assay [2] was “inactive” throughout. In assay [3], the growth inhibition call was “inactive”.

For `C[C@H](CO)N1C[C@H](C)[C@@H](CN(C)C(=O)c2ccccc2)OCCCC[C@H](C)Oc2ccc(NS(=O)(=O)c3cccs3)cc2C1=O`, the cytotoxicity call in assay [1] and in assay [2] was “inactive” in each case. For the same compound, the growth inhibition call in assay [3] is “inactive”.

With `COC[C@H]1CN(CC2CC2)Cc2nnn(C)c21`, the cytotoxicity call in assay [1] and in assay [2] was “inactive” in each case. In addition, the growth inhibition call in assay [3] is “inactive”.

On to `C[C@H](CO)N1C[C@H](C)[C@@H](CN(C)Cc2ccc3c(c2)OCCN3C)OCc2cn(nn2)CCCC1=O`, for which the cytotoxicity call in assay [1] and in assay [2] was “inactive” each time. For the same compound, the growth inhibition call in assay [3] is “inactive”.

For `CC(C)CC#Cc1ccc2c(c1)O[C@H](CN(C)C(=O)c1ccncc1)[C@@H](C)CN([C@@H](C)CO)S2(=O)=O`, the cytotoxicity call in assay [1] and in assay [2] was “inactive” each time. The growth inhibition call in assay [3] was “inactive”.

On to `C[C@@H]1CN([C@H](C)CO)C(=O)Cc2cc(NC(=O)c3ccncc3)ccc2O[C@@H]1CN(C)S(=O)(=O)c1ccc(F)cc1`, for which the cytotoxicity call in assay [1] and in assay [2] was “inactive” throughout. For the same compound, the growth inhibition call in assay [3] is “inactive”.

Consider `Oc1ccnc(S)n1`, for which the cytotoxicity call in assay [1] and in assay [2] was “inactive” each time. In assay [3], the growth inhibition call is “inactive”.

As for `CO[C@H]1CN(C)C(=O)c2cc(NC(=O)Nc3ccc(Cl)cc3)ccc2OC[C@H](C)N(C(=O)Nc2c(C)noc2C)C[C@H]1C`, the cytotoxicity call in assay [1] and in assay [2] was “inactive” each time. For the same compound, the growth inhibition call in assay [3] was “inactive”.

Take `C[C@H](CO)N1C[C@H](C)[C@@H](CN(C)Cc2ccc(Oc3ccccc3)cc2)Oc2ncc(-c3ccncc3)cc2C1=O`: the cytotoxicity call in assay [1] and in assay [2] was “inactive” in each case. Besides, the growth inhibition call in assay [3] was “inactive”.

On to `C[C@@H]1CCCCO[C@H](CN(C)S(=O)(=O)c2cn(C)cn2)[C@H](C)CN([C@@H](C)CO)C(=O)c2cc(NS(=O)(=O)c3cccs3)ccc2O1`, for which the cytotoxicity call in assay [1] and in assay [2] was “inactive” each time. Further, in assay [3], the growth inhibition call was “inactive”.

As for `Cc1ccc(-c2cnc(-c3ccc(Br)cc3)o2)cc1`, the cytotoxicity call in assay [1] and in assay [2] was “inactive” in each case. In addition, the growth inhibition call in assay [3] is “inactive”.

Turning to `NC(=O)[C@H]1CSCCC(=O)N1`, the cytotoxicity call in assay [1] and in assay [2] was “inactive” throughout. In addition, the growth inhibition call in assay [3] is “inactive”.

`CCNC(=O)c1sc(C)nc1N`: the cytotoxicity call in assay [1] is “inactive”. Moreover, in assay [2], the cytotoxicity call is “active”. Besides, the growth inhibition call in assay [3] was “inactive”.

`CC(C)NC(=O)Nc1cccc2c1O[C@@H](CN(C)S(=O)(=O)c1cn(C)cn1)[C@@H](C)CN([C@@H](C)CO)C2=O`: the cytotoxicity call in assay [1] and in assay [2] was “inactive” in each case. The growth inhibition call in assay [3] is “inactive”.

As to `Cc1ccc(S(=O)(=O)Nc2ccc3c(c2)CC(=O)N([C@@H](C)CO)C[C@H](C)[C@@H](CN(C)C(=O)NC(C)C)O3)cc1`, the cytotoxicity call in assay [1] and in assay [2] was “inactive” in each case. Moreover, the growth inhibition call in assay [3] was “inactive”.

`CCc1nc2ccc(C(=O)Nc3cccc(OCC(=O)N(C)C)c3)cn2c1N(CCN(C)C)CC1CC1`: the cytotoxicity call in assay [1] and in assay [2] was “inactive” throughout. Moreover, the growth inhibition call in assay [3] is “inactive”.

For the compound `COc1ccc(S(=O)(=O)Nc2ccc3c(c2)CC(=O)N([C@H](C)CO)C[C@@H](C)[C@H](CN(C)S(=O)(=O)c2ccccc2)O3)cc1`, the cytotoxicity call in assay [1] and in assay [2] was “inactive” in each case. Also, the growth inhibition call in assay [3] was “inactive”.

As to `C[C@@H]1CCCCO[C@H](CN(C)Cc2ccc(C(=O)O)cc2)[C@H](C)CN([C@H](C)CO)C(=O)c2cc(NC(=O)CCC(F)(F)F)ccc2O1`, the cytotoxicity call in assay [1] and in assay [2] was “inactive” each time. Further, in assay [3], the growth inhibition call was “inactive”.

As for `C[C@@H]1CN([C@@H](C)CO)S(=O)(=O)c2ccc(C#CC3CCCC3)cc2O[C@H]1CN(C)Cc1cncnc1`, the cytotoxicity call in assay [1] and in assay [2] was “inactive” throughout. In assay [3], the growth inhibition call is “inactive”.

On to `Cc1ccc(S(=O)(=O)Nc2ccc3c(c2)C(=O)N([C@@H](C)CO)C[C@@H](C)[C@H](CN(C)C(=O)c2ccccc2)OCCCC[C@@H](C)O3)cc1`, for which the cytotoxicity call in assay [1] and in assay [2] was “inactive” each time. In assay [3], the growth inhibition call is “inactive”.

For the compound `CC(=O)O[C@H]1C[C@@]2(C)[C@@H](C[C@@H](O)[C@H]3[C@@]4(C)CC[C@@H](O)[C@@H](C)[C@H]4CC[C@@]32C)C1=C(CCC=C(C)C)C(=O)O`, the cytotoxicity call in assay [1] and in assay [2] was “inactive” each time. In addition, in assay [3], the growth inhibition call was “active”.

For `Cc1ccc(S(=O)(=O)N(C)C[C@@H]2Oc3c(NS(=O)(=O)c4cn(C)cn4)cccc3C(=O)N([C@H](C)CO)C[C@H]2C)cc1`, the cytotoxicity call in assay [1] and in assay [2] was “inactive” in each case. Further, the growth inhibition call in assay [3] is “inactive”.

As for `CO[C@H]1CN(C)C(=O)c2ccc(NC(=O)C3CC3)cc2OC[C@@H](C)N(C(=O)CN2CCOCC2)C[C@@H]1C`, the cytotoxicity call in assay [1] and in assay [2] was “inactive” in each case. Besides, in assay [3], the growth inhibition call was “inactive”.

As to `C[C@H]1CN([C@@H](C)CO)C(=O)c2c(c3ccccc3n2C)-c2ccccc2CO[C@@H]1CN(C)S(=O)(=O)c1ccc(C(F)(F)F)cc1`, the cytotoxicity call in assay [1] and in assay [2] was “inactive” throughout. Further, the growth inhibition call in assay [3] was “inactive”.

On to `Cc1ccc(CNC(=S)NCCO)cc1`, for which the cytotoxicity call in assay [1] and in assay [2] was “inactive” each time. In addition, in assay [3], the growth inhibition call is “inactive”.

As for `COc1ccc(S(=O)(=O)Nc2ccc3c(c2)[C@@H]2C[C@@H](CC(=O)NCC4CC4)O[C@H](CO)[C@@H]2O3)cc1`, the cytotoxicity call in assay [1] and in assay [2] was “inactive” throughout. In addition, in assay [3], the growth inhibition call was “inactive”.

On to `C[C@H]1CN([C@@H](C)CO)C(=O)c2cccc(NC(=O)Nc3ccc(C(F)(F)F)cc3)c2O[C@H]1CN(C)S(C)(=O)=O`, for which the cytotoxicity call in assay [1] and in assay [2] was “inactive” throughout. Further, in assay [3], the growth inhibition call was “inactive”.

As to `COc1ccc(C#Cc2cnc3c(c2)C(=O)N([C@H](C)CO)C[C@H](C)[C@@H](CN(C)C(=O)CN(C)C)O3)cc1`, the cytotoxicity call in assay [1] and in assay [2] was “inactive” throughout. Moreover, in assay [3], the growth inhibition call is “inactive”.

These data come from the antibiotic and cytotoxicity screens of Wong et al. (2023).
